Test results taken from publication PMC7819943, “Rice protein-binding microarrays: a tool to detect cis-acting elements near promoter regions in rice”.
The list shows a part of the results.

What follows are sequences tested against T1, OsWOX13 (Oryza sativa, UniProt Q5QMM3 1-267) (assay: protein-binding microarray (RPBM); PBS, 2% BSA, 51.3 ng/ul salmon testes DNA, 50 uM zinc acetate, 200 nM TF, 25 C, 1 h; high values mean tight binding). Conditions: protein: recombinant; tags: N-terminal polyhistidine and DsRed monomer fusion (pET32a); label: CyDye5-dUTP incorporated in the synthesized complementary strand; 3' TTTTT single-stranded linker to array surface; dsDNA, one strand shown.
T1 sequence: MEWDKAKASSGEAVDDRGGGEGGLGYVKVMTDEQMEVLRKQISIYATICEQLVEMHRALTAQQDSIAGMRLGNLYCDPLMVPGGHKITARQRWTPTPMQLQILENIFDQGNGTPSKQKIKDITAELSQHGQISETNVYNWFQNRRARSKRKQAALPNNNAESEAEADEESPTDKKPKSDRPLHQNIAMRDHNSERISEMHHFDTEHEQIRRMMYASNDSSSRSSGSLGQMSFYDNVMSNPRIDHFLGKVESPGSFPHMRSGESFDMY
Outline: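 Binding signal is reported as fluorescence intensity per feature (arbitrary units) from an Axon 4000B scanner. Incubation used 200 nM of each Ni–NTA-purified, N-terminally polyhistidine- and DsRed-fused transcription factor from E. coli BL21-CodonPlus on a double-stranded custom Agilent array for 1 h at 25 °C, with 50 µM zinc acetate in the buffer, followed by washing.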
For “GTAAATTTGCAATTGCCCCAAAATGTTTATATTGGACGGACGGAGTCACCTAGTGCAG”, the binding signal was 21800 fluorescence intensity (a.u.). “TCTTGATTTTGTTTGTTTTAAATCAGTGTGAAAATCATTACGGAGTCACCTAGTGCAG” was tested, and the binding signal was 10500 fluorescence intensity (a.u.). In the case of “CTTAATTACAAATTTGAAATTAATTTGCTAGGTATGTTTACGGAGTCACCTAGTGCAG”, the binding signal was 63900 fluorescence intensity (a.u.). “CGGTGCAATCAGATTACAGATCGAATAAATAGTTGTCAAGCGGAGTCACCTAGTGCAG” was tested, and the binding signal was 3660 fluorescence intensity (a.u.). In the case of “CTGTTCTGTCAAAAGGCTATTGATTTATCCTCCGATCATACGGAGTCACCTAGTGCAG”, the binding signal was 11500 fluorescence intensity (a.u.). In the case of “CTATTTGACTGAAAGTTAAAACCTTAAATGTTTAAATCAGCGGAGTCACCTAGTGCAG”, the binding signal was 13800 fluorescence intensity (a.u.). For “ATCTCTATTATCCCCATTATGTTCTTAATCATGCCCAGGACGGAGTCACCTAGTGCAG”, the binding signal was 5050 fluorescence intensity (a.u.). For “CTAAACAGGCCTTATATTATTTTCTTAGGGCTGTTTTGGACGGAGTCACCTAGTGCAG”, the binding signal was 6570 fluorescence intensity (a.u.). For “AGTTAACACATATCATCTACAGCCAACCTAATAGTATGTTCGGAGTCACCTAGTGCAG”, the binding signal was 3290 fluorescence intensity (a.u.). For “CTTAATATATATTAAACAACCTAGAATTAAAATTATTTTGCGGAGTCACCTAGTGCAG”, the binding signal was 7540 fluorescence intensity (a.u.). In the case of “TTATTTGACTGATACCCATCAACTCCATACCCAAATCAAGCGGAGTCACCTAGTGCAG”, the binding signal was 20600 fluorescence intensity (a.u.). For “TCTGTGTTGACTCAAAATTGATTTGATCAGATACGGGACACGGAGTCACCTAGTGCAG”, the binding signal was 19400 fluorescence intensity (a.u.). In the case of “CTTATTAATATAATAAACTAATAGATAAATATATAATTGTCGGAGTCACCTAGTGCAG”, the binding signal was 6800 fluorescence intensity (a.u.). In the case of “GTCCAATCACAGCGGCGCACAAAGGCGCGTGTGGAAAACACGGAGTCACCTAGTGCAG”, the binding signal was 4720 fluorescence intensity (a.u.). With “ATGGGAAATTGGGGATTTTGACCGTGAATTTGGGGATTTTCGGAGTCACCTAGTGCAG” the binding signal was 5250 fluorescence intensity (a.u.). In the case of “ACTGATTGCTGTTGGTCATTCCCGGGCCAGTCCCCACTCCCGGAGTCACCTAGTGCAG”, the binding signal was 52400 fluorescence intensity (a.u.). For “TAGTAATTATTTATGCTGGCGTGCAGTTGTCTTCTTCTGTCGGAGTCACCTAGTGCAG”, the binding signal was 19700 fluorescence intensity (a.u.). With “GGCACATAAATGCCTAATTAGAACGAGTGGACAGGTCAATCGGAGTCACCTAGTGCAG” the binding signal was 10500 fluorescence intensity (a.u.). With “AACTAGATATTTAATTAATGGTATCGTAATCAAACCGATCCGGAGTCACCTAGTGCAG” the binding signal was 6080 fluorescence intensity (a.u.). With “AATCAATTATAACCATTTTCTATTTAATTACCTCACGCACCGGAGTCACCTAGTGCAG” the binding signal was 25700 fluorescence intensity (a.u.). “AATAAATAATTAATACTTAATTAATATGCAATAATATGCACGGAGTCACCTAGTGCAG” was tested, and the binding signal was 38600 fluorescence intensity (a.u.). With “TATTTGCCTATCCCTATCAATTATCATGTTTAAATTTTCACGGAGTCACCTAGTGCAG” the binding signal was 5720 fluorescence intensity (a.u.). “CGAAATTGGGCAGAACAGTAGATTTCTCTCGTAAATAAGTCGGAGTCACCTAGTGCAG” was tested, and the binding signal was 6810 fluorescence intensity (a.u.). For “TTTTGGAATTGATACTCGATATTTCTGCCAAGGAGAGGCTCGGAGTCACCTAGTGCAG”, the binding signal was 7220 fluorescence intensity (a.u.). With “ATTTTGATTTGCTCTCGGCTCTCTCGTTCGTGTGCACATCCGGAGTCACCTAGTGCAG” the binding signal was 26200 fluorescence intensity (a.u.). With “TGAAAATTTTGTCGGAAATTTATCAGTGTATCAACTGTCTCGGAGTCACCTAGTGCAG” the binding signal was 6470 fluorescence intensity (a.u.). For “AGTATAATTATGTTTAGAATGGATTAATTGTAATGTAAAGCGGAGTCACCTAGTGCAG”, the binding signal was 38600 fluorescence intensity (a.u.). In the case of “ATTAATTAATTAATTAATTAATACAAGTTGGCAACAGCAGCGGAGTCACCTAGTGCAG”, the binding signal was 43300 fluorescence intensity (a.u.). For “CTATATCTTGATGCTTTGTTGATTAGTACCATGGATTGGCCGGAGTCACCTAGTGCAG”, the binding signal was 6900 fluorescence intensity (a.u.). For “CTAGCTAATTAAGCCAGAATAATGTCATCTTATTCTCAAACGGAGTCACCTAGTGCAG”, the binding signal was 11200 fluorescence intensity (a.u.). “TACGTGATTGAAAGAAATGTTTAATAAACAAATGATGTGACGGAGTCACCTAGTGCAG” was tested, and the binding signal was 18000 fluorescence intensity (a.u.). “CGTGATTTCAAGGTGATTCAAAATCAGATTTCGAGAAATTCGGAGTCACCTAGTGCAG” was tested, and the binding signal was 12200 fluorescence intensity (a.u.). With “ATGAGTACTAATTTTGATTTACGTCGTTAACGTTTTGAAACGGAGTCACCTAGTGCAG” the binding signal was 12000 fluorescence intensity (a.u.). In the case of “AGGTTCCACATCACGATGCCAATCATAGTAGCCAAATCAACGGAGTCACCTAGTGCAG”, the binding signal was 3610 fluorescence intensity (a.u.). With “TTTAAACAAGATCAATTTAACTTATAAACATTTGGGAGTGCGGAGTCACCTAGTGCAG” the binding signal was 6550 fluorescence intensity (a.u.). In the case of “CATTGGAATTGATGATCACATTATACATGGATTTGACCCACGGAGTCACCTAGTGCAG”, the binding signal was 30600 fluorescence intensity (a.u.). With “TTCGCTATTGGTTGATTTGTTAATTTAGCGGGGTCATTAGCGGAGTCACCTAGTGCAG” the binding signal was 9460 fluorescence intensity (a.u.). “GAATGATTGAGAGAGCTGTTTAGATTATAACCAAAATAAACGGAGTCACCTAGTGCAG” was tested, and the binding signal was 15600 fluorescence intensity (a.u.). For “GTAAAATATATTATTGTGATTAGAATGGCACCAACAATATCGGAGTCACCTAGTGCAG”, the binding signal was 14600 fluorescence intensity (a.u.). With “TTCTACACAACGATAATTGGCTGTGCAGCCTGGCGTATAACGGAGTCACCTAGTGCAG” the binding signal was 11500 fluorescence intensity (a.u.). In the case of “TTTAAATGATGTATTCTGCAGTGGGTTCAGTGTGACAAGTCGGAGTCACCTAGTGCAG”, the binding signal was 6530 fluorescence intensity (a.u.). With “TATATATATATATATATATATATAAGTGAATTTTCATAGTCGGAGTCACCTAGTGCAG” the binding signal was 3180 fluorescence intensity (a.u.).
